{
  "source": "the supplement of paper PMC10681739",
  "note": "± gives the standard deviation of the averaged measurements. Over roughly 4,100 sequences, “arbitrary fluorescence units” has its median near 780; the highest 2% begin near 22,000. The list shows a part of the results.",
  "data": [
    {"biological_target": "T1, ETS1 (UniProt P14921)", "T1 sequence": "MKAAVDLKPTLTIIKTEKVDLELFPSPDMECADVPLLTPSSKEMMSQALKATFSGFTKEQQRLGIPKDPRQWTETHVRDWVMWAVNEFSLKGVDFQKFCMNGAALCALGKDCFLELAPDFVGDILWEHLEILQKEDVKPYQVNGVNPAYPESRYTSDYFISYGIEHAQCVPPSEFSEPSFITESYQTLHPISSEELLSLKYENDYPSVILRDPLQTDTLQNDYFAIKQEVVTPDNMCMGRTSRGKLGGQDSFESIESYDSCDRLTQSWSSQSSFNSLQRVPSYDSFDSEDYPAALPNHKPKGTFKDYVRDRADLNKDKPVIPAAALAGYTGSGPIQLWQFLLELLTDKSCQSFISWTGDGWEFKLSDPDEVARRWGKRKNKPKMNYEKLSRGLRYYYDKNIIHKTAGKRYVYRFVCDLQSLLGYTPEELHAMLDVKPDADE", "assay": "ETS1 binding intensity (PBM fluorescence), ETS1 alone (arbitrary fluorescence units); higher = stronger binding", "settings": "ETS1 concentration 1 nM; RUNX1 concentration 0 nM", "summary_of_the_method": "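Recombinant full-length human ETS1 was applied at 1 nM, without RUNX1, to double-stranded Agilent 4 × 180k arrays of 36-bp genomic probes carrying a mutated RUNX1 partner site, following standard PBM protocols. Detection used an anti-ETS1 antibody (Cell Signaling Technology 14069) and an Alexa488-conjugated secondary antibody, with scanning on a GenePix 4400A. Each sequence was printed as four replicate spots. Binding level is the spot fluorescence intensity, summarised across replicates and not normalised.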", "values": [
      {"sequence": "CGTCCCTAAATCACAGCTACAGGATGTAGGCACAAG", "ETS1 binding intensity": 1160},
      {"sequence": "CAAACGATAGCAGGAAAGGCCTGTGACTTGACAGCA", "ETS1 binding intensity": 384},
      {"sequence": "GCTGCCACTTCCCTTGCTTATTTCATGTGATTTGGA", "ETS1 binding intensity": 2600},
      {"sequence": "AATACCCTCTGGTGGCCGCCGGAAGTGTGTCGGCGG", "ETS1 binding intensity": 3120},
      {"sequence": "TGCGCCGGAAAGCAACGGCAAGGGCCGAAGCCAGCA", "ETS1 binding intensity": 552},
      {"sequence": "GAGGGCTGTTGTAGTTAGGACGGCTTCCTGGGTGGG", "ETS1 binding intensity": 532},
      {"sequence": "CTGCCTGCCCCAGAGCATGCAGGGACAGGAAGTGGG", "ETS1 binding intensity": 1380},
      {"sequence": "CCCTCTTCGGGACGAAGAAGGGGGATGTGCTGCTGG", "ETS1 binding intensity": 426},
      {"sequence": "AACAAACCGGATGGGGTTCCCACCTGCAATCTTGTC", "ETS1 binding intensity": 3820},
      {"sequence": "AAGATGGCGGGCGCTGAGCCGCCCACTTCCCCCTCC", "ETS1 binding intensity": 321},
      {"sequence": "GATCTTCCTGCAACCCCCCGAGACAACGACCGAACA", "ETS1 binding intensity": 3030},
      {"sequence": "TCGGGTGCGCAGTTCGGGGGCGGCTCGGAAACCCCA", "ETS1 binding intensity": 439},
      {"sequence": "GAAGCGATATTTCCTCCTGGGGTTGAACGCCCCGTG", "ETS1 binding intensity": 1730},
      {"sequence": "TGGTGACCCCGCCGCTCCAGCGTCGCGCTTCCGGGC", "ETS1 binding intensity": 955},
      {"sequence": "GGCAAGCTGGTGGATAAGATTCTCAGGAAGGAAGAC", "ETS1 binding intensity": 440},
      {"sequence": "GCTCATTTCCTGGCCGCTCCTGGGCTTCGAGGTGAG", "ETS1 binding intensity": 8460},
      {"sequence": "GGCCAAGGAAGCGGCCCCCTAAATCCGCTCCAGGGA", "ETS1 binding intensity": "458 ± 44"},
      {"sequence": "CAGTCAAGAGGAAATTATAAAGCACTGCCTCTTTGA", "ETS1 binding intensity": 709},
      {"sequence": "TTCTTCCGGCAACTGCTGCTGAGGCTTCGGTGGCGG", "ETS1 binding intensity": 8240},
      {"sequence": "TGCGGAAGAGGAACACGTGACGGTCGTGGCCCTTCT", "ETS1 binding intensity": 374},
      {"sequence": "CTCGACAGGGCGCGGAAGGGAGCGGAGGGCGCGCCC", "ETS1 binding intensity": 335},
      {"sequence": "GAGAGGAGGATGTTGTCAGATACCTACAAATGAGAA", "ETS1 binding intensity": 985},
      {"sequence": "GCGGCCTACGGGAGGACGGTGGTGCTTTCCGGCCTA", "ETS1 binding intensity": 476},
      {"sequence": "CCTGCTGCTTCCGCCCGGAGTTGTTGAGGGCTCCAG", "ETS1 binding intensity": 8210},
      {"sequence": "TGTAGAGGAGGTGGATTCCATCACGGAAGGCCGAAG", "ETS1 binding intensity": 411},
      {"sequence": "CCCCTCCGCTAAGCGCTCATCCCAGGAAAAAGGGGC", "ETS1 binding intensity": 348},
      {"sequence": "TGGGACTCTCAGCCCCAGAAGGCAGGAAATAGTGGC", "ETS1 binding intensity": 820},
      {"sequence": "GCCTCCTTCCTGGGCTCCTTTAAGAGGGTGGCAACG", "ETS1 binding intensity": 1980},
      {"sequence": "CCTGCGCCGAAGCGTCCGGCCGCCGCTGGGTAGGGC", "ETS1 binding intensity": 843},
      {"sequence": "GCTTGTAGTTGGAAACCTGCAGTCACAGAGGAAGTG", "ETS1 binding intensity": 497},
      {"sequence": "TGGTGGGTGCTCACAGAGCACTTCCGCATTCCTGAG", "ETS1 binding intensity": 2960},
      {"sequence": "CCGGGCGGGTGAAAAGTCCGAGAGAATCAGGATGGA", "ETS1 binding intensity": 379},
      {"sequence": "GGTTGCTCGGATCCGGGACTGCCGAAGGGGGTGCCA", "ETS1 binding intensity": 494},
      {"sequence": "CCTTGAAACAGCGGGGTGGGGAAGTCTAAAAATAGT", "ETS1 binding intensity": 527},
      {"sequence": "GAAAAATGAAGTTTCCGCAGTAACCCCAACACAGCC", "ETS1 binding intensity": 1480},
      {"sequence": "CCCTTTTTGGTCACAAAAACATTTCCTAGTTGAGAT", "ETS1 binding intensity": 543},
      {"sequence": "CTGCGGATGGAGCCTGCTCCTGCAAATCCACTGCTG", "ETS1 binding intensity": 336},
      {"sequence": "CACGCTTGCTATCACAAAAAGGAAATGCATCTGCAG", "ETS1 binding intensity": 536},
      {"sequence": "CAACGGCGTAGCCGGAAGTCAGTGGATTTCGCCCCA", "ETS1 binding intensity": 7360},
      {"sequence": "CCTCAGGAGAAAGCACCCTAGTAGTTCCGCTCCGAG", "ETS1 binding intensity": 412},
      {"sequence": "AGGACCGGAAGTGCCCGAGGGCGGCCGGAGAACGGT", "ETS1 binding intensity": 45500},
      {"sequence": "AGAGTGTAGCCGGAGAACTCACATCCTTGTTTACAT", "ETS1 binding intensity": 529},
      {"sequence": "GAGACACCTCATGGGTAGAGAAACTTCCGTAATGTT", "ETS1 binding intensity": 606},
      {"sequence": "ACTCTGTAGTTTCATTGCCTGCCCGGAAATGCAGCT", "ETS1 binding intensity": 852},
      {"sequence": "GATATGGCAGGAAGTAGGGCCTGGAAACAGCACGGC", "ETS1 binding intensity": "5700 ± 280"},
      {"sequence": "AGGCTCATTTCCTGTTTTCATGTAGTTTAGAGAAAA", "ETS1 binding intensity": 24300},
      {"sequence": "CTCTTCCTGCCTGTCCGTGGCTGGTGTAGTTTGCGT", "ETS1 binding intensity": 7100},
      {"sequence": "GTGCAACTGCTGTAAAAATAGGAAGTGGGGGAGGAG", "ETS1 binding intensity": 861},
      {"sequence": "CCATAGCCTAACCCCAAGCACCTCAGGAAGTTCTTT", "ETS1 binding intensity": 443},
      {"sequence": "AAAAATATCACACTAGCTAGGGCAGGAAGTGGGTGG", "ETS1 binding intensity": 1050},
      {"sequence": "ACTGCTTCTTGAGGTGAGGGACAGGAAACCAAGAGG", "ETS1 binding intensity": 649},
      {"sequence": "ACCTCTTCCGAGACCCAAAATGCGCGATCTGGAGAG", "ETS1 binding intensity": 591},
      {"sequence": "GGGAGGAAGTGTGAAGGGACTTTTTTGGTGAGTGAT", "ETS1 binding intensity": 743},
      {"sequence": "AGTAGCCGCTAGCAATCTCATGAGCAGGAAGCACAA", "ETS1 binding intensity": "406 ± 20"},
      {"sequence": "CGGGAGCGGCCGAAGTGACGACTTCCGGGATGCTCC", "ETS1 binding intensity": 7380},
      {"sequence": "GTGTCCTGTGCTCTCCTCTGCGCCACTTCCCTGCCT", "ETS1 binding intensity": 623},
      {"sequence": "GGGGTGCTGGGAAATGGAGCGAGAGGTGGATTCCAG", "ETS1 binding intensity": 466},
      {"sequence": "CCGCCGCGACACTTCCGGCGGCCACCAGAGGGTATT", "ETS1 binding intensity": 20200},
      {"sequence": "AGTTGGTTCCTTCCGGTGGGTTTGTGAGTTTGGGGT", "ETS1 binding intensity": 8000},
      {"sequence": "AAACAAGCGCTAACGCGACCACTTCCGCCACAGCCT", "ETS1 binding intensity": 4580},
      {"sequence": "GGATGACATCCGGCACCAACTTATCCACTAATCTCA", "ETS1 binding intensity": 13800},
      {"sequence": "GAAGAAGTCAGGAAATGCTGCCGTAGCAGCCAGCCC", "ETS1 binding intensity": 1420}
    ]}
  ]
}
